In all, about 310,000 compounds went through this assay and about 17,000 (5.5%) were called active. About 11% were inconclusive and are not listed. Calls come from the whole dose curve; as a rule, active = well fitted inhibition curve with a large enough effect; inconclusive = small, poorly fitted or top-dose-only effect, or effect the other way; inactive = no such curve, though single readings can be large or run the other way. This is a selection; strong and weak results do not stand in their true shares.
Target: Nuclear receptor ROR-gamma (Mus musculus) (UniProt P51450)
Assay: qHTS for inhibitors of ROR gamma transcriptional activity; note: nearly all actives have a fitted effect of over 60% in size
Conditions: Drosophila S2 Gal4-RORgamma UAS-luciferase reporter, 20 h; series mostly up to 53.6 µM; activity change, negative = inhibition: at the top concentration
In short: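 Schneider cells (Drosophila), stable Gal4 DBD–ROR gamma + UAS-luc; 1 hr cmpd preincubation; Cu2+ induction 700 uM final; 20 hr ambient; luminescence.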
% is set by controls: 0 for no effect and ±100 for the full control effect; potency is the fitted concentration of half-maximal effect.

UniProt P51450, sequence (P51450 whole entry, looked up): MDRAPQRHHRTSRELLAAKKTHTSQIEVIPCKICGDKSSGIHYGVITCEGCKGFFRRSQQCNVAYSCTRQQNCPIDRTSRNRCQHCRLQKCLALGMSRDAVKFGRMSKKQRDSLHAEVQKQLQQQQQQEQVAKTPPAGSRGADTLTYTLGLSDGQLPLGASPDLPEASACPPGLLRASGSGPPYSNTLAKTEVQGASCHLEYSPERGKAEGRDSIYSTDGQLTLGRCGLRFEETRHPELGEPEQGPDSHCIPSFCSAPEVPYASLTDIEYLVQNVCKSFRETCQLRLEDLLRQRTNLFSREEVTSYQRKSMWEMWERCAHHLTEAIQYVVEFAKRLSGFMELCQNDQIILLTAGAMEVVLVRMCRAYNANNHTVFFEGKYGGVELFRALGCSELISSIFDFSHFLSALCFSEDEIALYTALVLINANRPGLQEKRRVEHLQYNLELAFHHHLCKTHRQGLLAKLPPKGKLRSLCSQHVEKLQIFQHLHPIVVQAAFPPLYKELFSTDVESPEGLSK

| Structure (SMILES) | activity change, negative = inhibition | Potency |
| --- | --- | --- |
| O=C1OCCN1C(=O)[C@H]1[C@H](c2ccc(Cl)cc2)C(c2cccc(Cl)c2)=NN1c1ccccc1 | inactive: -2.49% | – |
| CCN(CC)CCNC(=O)c1cc(S(C)(=O)=O)ccc1OC | – | inactive |
| O=C(CCCN1CC=C(n2c(=O)[nH]c3ccccc32)CC1)c1ccc(F)cc1 | – | inactive |
| CCOc1ccc(/C=C/C2=CC(C)(C)NC(=S)N2)cc1 | – | active: 708 nM |
| C=C/C1=C/Cc2ccccc2[C@H](C[N+](=O)[O-])C(C(=O)OC)(C(=O)OC)C1 | inactive: -19.2% | – |
| COc1ccc2cc(CCC(C)=O)ccc2c1 | – | inactive |
| O=C(CSc1nc2ccccc2[nH]1)N/N=C/C=C/c1ccccc1[N+](=O)[O-] | inactive: 39.6% | – |
| CCCSC(=S)c1c(C)[nH]n(-c2ccccc2)c1=O | – | active: 316 nM |
| CC(C)CC(CSc1ccc(Br)cc1)N1CCN(CC(C)C)CCC1=O (centres undefined) | inactive: 12.6% | – |
| COc1cccc(/C=C2\SC(=S)N(CCCC(=O)N3CCCCC3)C2=O)c1 | – | active: 4470 nM |
| O=[N+]([O-])c1cccc2cn[nH]c12 | – | inactive |
| CC(C)NCC(O)c1ccc2ccccc2c1 (centres undefined) | – | inactive |
| CC#C[C@]1(O)CC[C@H]2[C@@H]3CCC4=CC(=O)CCC4=C3[C@H](c3ccc(N(C)C)cc3)C[C@@]21C | inactive: 25.4% | – |
| COC(=O)[C@H]1C[C@@H]1[C@H](NS(=O)(=O)c1ccc2ccccc2c1)c1ccccc1 | – | inactive |
| COc1ccc(-c2coc3cc(OC)cc(OC)c3c2=O)cc1 | inactive: 25.3% | – |
| O=C1C2C3c4ccccc4C(c4ccccc43)C2c2nc3ccccc3n21 (centres undefined) | inactive: -14.9% | – |
| COc1ccc(COc2cc(-c3cccc(OC)c3)nc3ccc(NC(=O)c4ccc(OC)cc4)cc23)cc1 | inactive: 5.45% [at 40.7 µM] | – |
| CCc1ccc(OCC2c3cc(OC)c(OC)cc3CCN2C(=S)NC)cc1 (centres undefined) | – | active: 11200 nM |
| Cc1c(C(=O)O)oc2c1C(O)CC(C)(C)C2 (centres undefined) | inactive: 0.504% | – |
| CCC1=C(C)CN(C(=O)NCCc2ccc(S(=O)(=O)NC(=O)NC3CCC(C)CC3)cc2)C1=O (centres undefined) | – | inactive |
| Cc1cccc(N=Nc2ccc(O)c3ncccc23)c1 | – | active: 112 nM |
| C[C@@H]1CC[C@@]2(O[C@H](CCO)C[C@@H](O)[C@@H]2O)O1 | inactive: 5.26% | – |
| COC(=O)C/C=C\[C@@H](C)[C@@H](/C=N\OC[C@@H]1O[C@H](c2ccccc2)C=C[C@@H]1Oc1ccc(OC)cc1)NS(=O)(=O)c1ccc(C)cc1 | inactive: -1.86% [at 10 µM] | – |
| CCC1=C(OC(=O)N(CC)CC)N2C(=O)OC(=NCC3CC3)[C@]2(Cc2ccccc2)[C@H]2C1=CC[C@H]1C(=O)N(c3ccccc3)C(=O)[C@H]12 | inactive: 37.9% | – |
| COc1ccc(C2=C(CN(C)C)C(c3ccccc3)c3ccccc3O2)cc1 (centres undefined) | inactive: -33.3% | – |
| O=S(=O)(c1cccc2nsnc12)N1CCN(C/C=C/c2ccccc2)CC1 | inactive: 2.15% | – |
| O=C(C1=C[C@@H](C2CCCCC2)C[C@@H](OCCCCO)O1)N1CCN(Cc2ccc3c(c2)OCO3)CC1 | inactive: 11.8% | – |
| COc1ccc(C2=Nn3c(nnc3-c3ccc(OC)cc3)SC2)cc1 | inactive: -6.07% | – |
| CCn1ccnc1CC1COc2ccccc2O1 (centres undefined) | inactive: -22.7% | – |

— PubChem BioAssay AID2551 (National Center for Advancing Translational Sciences (NCATS), 2010)
